{"source": "PubChem BioAssay AID1345082", "about": "(National Center for Advancing Translational Sciences (NCATS), 2018)", "note": "Among all 94,000 compounds or so, about 4,000 (4.3%) were called active. Inconclusive means that the source gave no clear call. Such entries were picked first, then a sample of the others. Calls follow the shape of the dose curve; as a rule, active = well fitted inhibition curve with a large enough effect; inconclusive = small, poorly fitted or top-dose-only effect; inactive = no such curve, though single readings can be large or run the other way. Where the call is inconclusive, the potency comes from a doubtful curve fit. Potency is read from the fitted curve at half-maximal effect; tags tell the direction and shape of the fitted curve.", "data": [{"assay": "Cytotoxic Profiling in NIH 3T3 Cell Line of Diverse Libraries Using Quantitative High-Throughput Screening; also: nearly all actives have a fitted effect of over 55% in size", "conditions": "NIH 3T3 viability, CellTiter-Glo ATP luminescence, 48-72 h; series mostly up to 96.7 µM", "summary_of_the_method": "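First NIH 3T3 cells are plated at 400 cells/well; next compound is pinned in; then plates incubate 48 or 72 hr at 37 °C; finally CellTiter-Glo is added and luminescence read after 10 min.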", "values": [{"smiles": "Cc1ccsc1CN1CCn2c(nnc2[C@@H]2C[C@@H](O)CN2C)C1", "Potency": "inactive"}, {"smiles": "CCc1noc(-c2cn(C3CCN(C(=O)COc4cccc(C)c4)CC3)nn2)n1", "Potency": "inconclusive: 10 µM [inhibitor, full curve, poor fit]"}, {"smiles": "Cc1cc(C(=O)N2CCCN(S(=O)(=O)c3ccccc3)CCC(=O)NCC2)nn1C", "Potency": "inactive"}, {"smiles": "CC1(C)[C@H]2CC[C@@H](CNC(=O)c3cccc(Cl)c3)[C@@H]1C2", "Potency": "inconclusive: 56.2 µM [inhibitor, partial curve, poor fit]"}, {"smiles": "COc1cccc(CN2C[C@@H](F)[C@@H](OCc3nc4ncccc4[nH]3)C2)c1", "Potency": "inconclusive: 50.1 µM [inhibitor, partial curve]"}, {"smiles": "O=C(COc1ccc(F)cc1)N1CCCCCC1c1nnc(-c2ccccc2)o1", "note": "(configuration not stated)", "Potency": "inconclusive: 50.1 µM [inhibitor, partial curve, poor fit]"}, {"smiles": "C=CCN1C[C@H]2COc3ccccc3[C@H]2N(C(=O)CC(C)(C)C)CCC1=O", "Potency": "inconclusive: 50.1 µM [inhibitor, single point]"}, {"smiles": "Cc1noc(C)c1S(=O)(=O)N1CCC(OCc2noc(C3CCCO3)n2)CC1", "note": "(configuration not stated)", "Potency": "inconclusive: 50.1 µM [inhibitor, partial curve, poor fit]"}, {"smiles": "COc1cccc(N2CC(C(=O)NCc3ccc(C(F)(F)F)cc3)NC2=O)c1", "note": "(configuration not stated)", "Potency": "inconclusive: 44.7 µM [inhibitor, partial curve, poor fit]"}, {"smiles": "CCCCn1c(=O)c(C(=O)NCc2cccs2)nc2cccnc21", "Potency": "inactive"}, {"smiles": "COCCN1Cc2ccc(NCc3ccccc3)nc2C(C)(C(=O)Nc2cccnc2)C1", "note": "(configuration not stated)", "Potency": "inconclusive: 50.1 µM [inhibitor, partial curve]"}, {"smiles": "COc1ccc(NC(=O)Cn2c(-c3cnccn3)nc(C)c(C)c2=O)cc1", "Potency": "inactive"}, {"smiles": "COc1ccc(C(=O)NC2CCCN(c3ccc4nnc(C5CC5)n4n3)C2)cc1", "note": "(configuration not stated)", "Potency": "inactive"}, {"smiles": "CCCN1C(=O)Cc2cc(C(=O)NCc3ccc(Cl)cc3)ccc21", "Potency": "inconclusive: 31.6 µM [inhibitor, full curve]"}, {"smiles": "O=C(NCc1ccc(C(F)(F)F)cc1)C1CN(C2CCCCC2)C(=O)N1", "note": "(configuration not stated)", "Potency": "inconclusive: 50.1 µM [inhibitor, partial curve, poor fit]"}, {"smiles": "COCCN1C(=O)c2ccccc2C(C(=O)Nc2nnc(COC)s2)C12CCCCC2", "note": "(configuration not stated)", "Potency": "inconclusive: 35.5 µM [inhibitor, single point]"}, {"smiles": "CCn1c2c(c(=O)n1-c1ccccc1)CCN(C(=O)c1ccnn1C)C2", "Potency": "inconclusive: 89.1 µM [inhibitor, partial curve]"}, {"smiles": "O=C(C1CC1)N1CCCN(c2ccc3nnc(-c4ccccc4)n3n2)CC1", "Potency": "inactive"}, {"smiles": "Cc1ccc(C)c(C(=O)N2C[C@@H](CO)[C@H](N(C)C)C2)c1", "Potency": "inactive"}, {"smiles": "Cc1ccc(-c2cc(C(=O)NCc3cccc(Cl)c3)c3cnn(C)c3n2)c(C)c1", "Potency": "inconclusive: 35.5 µM [inhibitor, partial curve]"}, {"smiles": "COc1ccc2c(c1)CN(CC=C(C)C)C(=O)CCN2CC(C)(C)O", "Potency": "inactive"}, {"smiles": "COCC(=O)N1CC2(Cc3ccccc3N([S+](C)(=O)[O-])C2)C1", "Potency": "inactive"}, {"smiles": "CN(Cc1cccc(C(F)(F)F)c1)C(=O)c1ccccc1", "Potency": "inconclusive: 79.4 µM [inhibitor, partial curve, poor fit]"}, {"smiles": "COc1ccccc1CC(=O)Nc1cnc(-c2cccc(Cl)c2)nc1", "Potency": "inconclusive: 50.1 µM [inhibitor, partial curve, poor fit]"}, {"smiles": "CC(C)NC(=O)N1CCN(c2nccc(Nc3ccccc3Cl)n2)CC1", "Potency": "active: 35.5 µM"}, {"smiles": "COc1ccc(OC)c(CNC(=O)c2cccc3c2CCN3C(=O)c2ccc(F)cc2)c1", "Potency": "inconclusive: 39.8 µM [inhibitor, partial curve]"}, {"smiles": "O=C(c1nc2cccnc2n(C2CC2)c1=O)N1CCC(c2ccccc2)CC1", "Potency": "inactive"}, {"smiles": "COc1ccc(-c2cc(N3CCCC(NC(=O)c4cccc(Cl)c4)C3)n[nH]2)cc1", "note": "(configuration not stated)", "Potency": "inconclusive: 44.7 µM [inhibitor, partial curve, poor fit]"}, {"smiles": "O=C(NCc1ccc(F)cc1)NC1CCc2nn(CC3CC3)c(=O)n2CC1", "note": "(configuration not stated)", "Potency": "inactive"}, {"smiles": "O=C(Nc1ccccc1F)N1CC(Oc2ccc(-c3noc(-c4ccccc4)n3)cc2)C1", "Potency": "inactive"}, {"smiles": "CCC1Oc2ccc(NC(=O)CC(C)(C)C)cc2CN(Cc2ccccc2F)C1=O", "note": "(configuration not stated)", "Potency": "inconclusive: 44.7 µM [inhibitor, partial curve, poor fit]"}, {"smiles": "Cc1nonc1CN(C)C(=O)c1csc2nc(-c3cccc(C(F)(F)F)c3)cn12", "Potency": "inconclusive: 44.7 µM [inhibitor, partial curve, poor fit]"}, {"smiles": "O=C(c1cccc(Cl)c1)N1CCCN(CCn2nc3n(c2=O)CCCC3)CC1", "Potency": "inactive"}, {"smiles": "CCOc1ccc(CN2C[C@@H](CO)[C@H](c3ccncc3)C2)cc1", "Potency": "inactive"}, {"smiles": "O=c1c2c(nc3cc[nH]n13)CN(S(=O)(=O)c1ccc(F)c(Cl)c1)CC2", "Potency": "inactive"}, {"smiles": "CCc1cc(=O)n(CC(=O)N2CCN(c3ccc(F)cc3)CC2)c(N2CCOCC2)n1", "Potency": "inconclusive: 12.6 µM [inhibitor, partial curve, poor fit]"}, {"smiles": "COc1ccc(CC(=O)NC2CCN(Cc3ccc(-c4ccccc4OC)cc3)C2)cc1", "note": "(configuration not stated)", "Potency": "active: 31.6 µM"}, {"smiles": "O=C(Cc1cccc(F)c1)N1CCC2(CC1)NC(=O)N(c1ccccc1Cl)N2", "Potency": "inconclusive: 35.5 µM [inhibitor, partial curve, poor fit]"}, {"smiles": "CC(C)NC(=O)[C@@H]1C[C@H](N)CN1C(=O)c1cccc(S(C)(=O)=O)c1", "Potency": "inactive"}, {"smiles": "COc1ccc([C@H]2C[C@@H](O)[C@@H](O)[C@@H]2NS(=O)(=O)c2ccc(Cl)cc2)cc1", "Potency": "inactive"}, {"smiles": "COc1ccccc1C(O)c1nc(Nc2ccncc2)n[nH]1", "note": "(configuration not stated)", "Potency": "inconclusive: 112 µM [inhibitor, single point]"}, {"smiles": "COCc1ccc2c(c1)c(OC(C)(C)C(=O)Nc1cc(C)nn1C)nn2Cc1cccnc1", "Potency": "active: 39.8 µM"}, {"smiles": "COc1cc(-c2nc(CN3CCCC(CN)C3)c(C)o2)cc2c1OCO2", "note": "(configuration not stated)", "Potency": "inconclusive: 50.1 µM [inhibitor, partial curve, poor fit]"}, {"smiles": "Cc1ccc(C(=O)N2CCN(CCn3nc4n(c3=O)CCCC4)CC2)cc1", "Potency": "inactive"}, {"smiles": "O=C(NCCc1ccccc1)N1CCN(C(=O)N2CC3CC(C2)[C@H]2CCCC(=O)N2C3)CC1", "note": "(some centres not stated)", "Potency": "inactive"}, {"smiles": "COCCc1noc(-c2ccccc2OC2CN(C(=O)c3ccncc3)C2)n1", "Potency": "inactive"}, {"smiles": "COCCC(=O)N1CCC2(CC1)CC(N(C(=O)c1ccccc1)C1CC1)CCO2", "note": "(configuration not stated)", "Potency": "inactive"}, {"smiles": "CC(=O)N1CCc2sc(C(=O)NCc3ccc(F)cc3Cl)cc2C1", "Potency": "inconclusive: 31.6 µM [inhibitor, partial curve, poor fit]"}, {"smiles": "COCCn1c(=O)c2c(n1Cc1ccccc1)CN(C(=O)Cc1cccc(F)c1)CC2", "Potency": "inconclusive: 25.1 µM [inhibitor, partial curve, poor fit]"}, {"smiles": "O=C1c2cnc(-c3ccc(CO)cc3)nc2OCCN1c1cccc(C(F)(F)F)c1", "Potency": "inconclusive: 10 µM [inhibitor, full curve, poor fit]"}, {"smiles": "O=C(C1CCCC1)N1CC2(CCCN(Cc3ccc(Cl)cc3)C2)Cc2ccccc21", "note": "(configuration not stated)", "Potency": "inconclusive: 44.7 µM [inhibitor, partial curve, poor fit]"}, {"smiles": "CCn1cc(CN(C)C(=O)c2cc(-c3ccc(OC)cc3)cn2CC)c(C)n1", "Potency": "inconclusive: 17.8 µM [inhibitor, full curve, poor fit]"}, {"smiles": "Cc1nc(N2CCC(C(=O)NCCC3=CCCCC3)CC2)cc(C(F)(F)F)n1", "Potency": "inconclusive: 28.2 µM [inhibitor, partial curve, poor fit]"}, {"smiles": "Cc1cccc(NC(=O)c2cc3c(N4CCSCC4)nc(C)cn3n2)c1", "Potency": "inconclusive: 44.7 µM [inhibitor, partial curve, poor fit]"}, {"smiles": "COc1cc(OCc2ccccc2)ccc1CN1C[C@@H]2CCN[C@@H]2C1", "Potency": "inconclusive: 50.1 µM [inhibitor, partial curve, poor fit]"}, {"smiles": "O=C(O)c1cccc(-c2cc(C(F)(F)F)ccc2Cl)c1", "Potency": "inactive"}, {"smiles": "O[C@@H]1C[C@@H](c2nc(-c3ccccc3)no2)N(Cc2cc3ccccc3o2)C1", "Potency": "inconclusive: 126 µM [inhibitor, single point]"}, {"smiles": "O=C1CC2(CCN(Cc3ccc(C(F)(F)F)cc3)CC2)Oc2ccccc2N1c1ccccc1", "Potency": "active: 25.1 µM"}, {"smiles": "O=C(NCCc1ccncc1)C1c2ccccc2C(=O)N(Cc2ccccc2)C12CCCC2", "note": "(configuration not stated)", "Potency": "inconclusive: 70.8 µM [inhibitor, single point]"}, {"smiles": "CN(C)C(CNC(=O)c1cn(C2CCC(N)CC2)nn1)c1ccccn1", "note": "(configuration not stated)", "Potency": "inactive"}, {"smiles": "CCc1nc2c(c(-c3ccc(O)cc3)n1)CCN(Cc1ccc(C)cc1)CC2", "Potency": "inconclusive: 56.2 µM [inhibitor, partial curve, poor fit]"}, {"smiles": "O=C(c1cccc(Cl)c1)N1CCC2(CC1)CCN(Cc1cccs1)c1ccccc1O2", "Potency": "inconclusive: 25.1 µM [inhibitor, full curve, poor fit]"}, {"smiles": "NC(=O)Cc1c[nH]c2ncc(-c3cccc(C(F)(F)F)c3)cc12", "Potency": "active: 31.6 µM"}, {"smiles": "CC(=O)N1CCC(N2CCOC[C@H]2c2ncc(C(C)(C)C)[nH]2)CC1", "Potency": "inactive"}, {"smiles": "CCn1cc(-c2ccc(Cl)cc2)cc1C(=O)NCCN1CCOCC1", "Potency": "inconclusive: 50.1 µM [inhibitor, partial curve, poor fit]"}, {"smiles": "CN(C)c1ccc(C(=O)N2CCC(n3cc(-c4nc(-c5ccccc5)no4)nn3)C2)cc1", "note": "(configuration not stated)", "Potency": "inconclusive: 12.6 µM [inhibitor, full curve, poor fit]"}, {"smiles": "COCCNC(=O)[C@H]1C[C@H](Oc2ccccc2)CN1Cc1ccc2[nH]ccc2c1", "Potency": "inconclusive: 50.1 µM [inhibitor, single point]"}]}]}
